Source: PMC7819943, “Rice protein-binding microarrays: a tool to detect cis-acting elements near promoter regions in rice”
The other results are listed elsewhere or left out.

Target: T1, OsWOX13 (Oryza sativa, UniProt Q5QMM3 1-267)
T1 sequence: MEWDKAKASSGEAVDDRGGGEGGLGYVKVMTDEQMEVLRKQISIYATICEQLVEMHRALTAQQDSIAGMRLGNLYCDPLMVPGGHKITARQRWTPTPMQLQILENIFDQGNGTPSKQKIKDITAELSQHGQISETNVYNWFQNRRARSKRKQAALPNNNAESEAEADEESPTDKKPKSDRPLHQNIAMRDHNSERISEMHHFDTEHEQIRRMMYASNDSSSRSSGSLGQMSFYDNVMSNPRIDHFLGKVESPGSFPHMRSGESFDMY
Assay: protein-binding microarray (RPBM); PBS, 2% BSA, 51.3 ng/ul salmon testes DNA, 50 uM zinc acetate, 200 nM TF, 25 C, 1 h; high values mean tight binding
Conditions: protein: recombinant; tags: N-terminal polyhistidine and DsRed monomer fusion (pET32a); label: CyDye5-dUTP incorporated in the synthesized complementary strand; 3' TTTTT single-stranded linker to array surface; dsDNA, one strand shown
In short: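 The binding signal is fluorescence intensity per feature, in arbitrary units, read on an Axon 4000B scanner. Polyhistidine- and DsRed-tagged transcription factors (N-terminal fusions) from E. coli BL21-CodonPlus were purified on Ni–NTA and applied at 200 nM for 1 h at 25 °C to a double-stranded, BSA-blocked custom Agilent array in buffer with 50 µM zinc acetate.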

Sequence	binding signal
ACCTTGATTTTCATGATACTTTATTTTCTTCAACATCGTACGGAGTCACCTAGTGCAG	16600 fluorescence intensity (a.u.)
TTGAGCCTAATTACGCCATGATTTGACAATGTGATGCTACCGGAGTCACCTAGTGCAG	40200 fluorescence intensity (a.u.)
TTCCCAATCTCCTCAATCACCTTCTCCTCAAACACACCCTCGGAGTCACCTAGTGCAG	25400 fluorescence intensity (a.u.)
AGATATAATTTGATAAATTTACATCATCAGTGAATCAATCCGGAGTCACCTAGTGCAG	25000 fluorescence intensity (a.u.)
CCCAGTTTGATCACAACCTAATCAAGAGCTTAATTTAGAACGGAGTCACCTAGTGCAG	6120 fluorescence intensity (a.u.)
TTCTGTAAATCTGTAATTCTGAATTGTCTGCAAATTTGCACGGAGTCACCTAGTGCAG	3720 fluorescence intensity (a.u.)
GCAATCAATAATGTACAGTATAACTCTGTTGACTTTTGAACGGAGTCACCTAGTGCAG	11800 fluorescence intensity (a.u.)
ATAGATGCTAATTGCATAGGAGTAACTTACAAGGGACTTTCGGAGTCACCTAGTGCAG	6360 fluorescence intensity (a.u.)
CCCTGATGATCTATCGTCACTGACAGAGCTCACACTGCTGCGGAGTCACCTAGTGCAG	15300 fluorescence intensity (a.u.)
ACAGACTTAACAATAATTTTATCATAGATATAGATTAAGTCGGAGTCACCTAGTGCAG	11300 fluorescence intensity (a.u.)
AACTACAAAATTGATTTCGATTTGATTGCTCCTAAACGTTCGGAGTCACCTAGTGCAG	36900 fluorescence intensity (a.u.)
GATCGAGTTAATTAATCTCTATCCCGCATGTAATATAATGCGGAGTCACCTAGTGCAG	10500 fluorescence intensity (a.u.)
TAAATTTAACATTAAATATACTATGATAATATGTTTGTTTCGGAGTCACCTAGTGCAG	7030 fluorescence intensity (a.u.)
TAAATTATCATAAACCACATTAATTTACTTAATCTGATATCGGAGTCACCTAGTGCAG	17600 fluorescence intensity (a.u.)
ATGACTGCACTTAAAATGGGATGGAGGGAGTAGTAGACATCGGAGTCACCTAGTGCAG	3700 fluorescence intensity (a.u.)
TGTCCCTGTCTATTTTACCTCTATATCGCACGTACTCCGGCGGAGTCACCTAGTGCAG	3710 fluorescence intensity (a.u.)
TGTTAAATTTAGGGAGAACTTTACTCCACCAGTAGATTGGCGGAGTCACCTAGTGCAG	5050 fluorescence intensity (a.u.)
TCAATCAATCGATCGATCAATCAATCGTGCAAGGGAAGAACGGAGTCACCTAGTGCAG	18800 fluorescence intensity (a.u.)
CAGCCATATGATTAGTGCTCCGTATTACTTAGAATCAAGCCGGAGTCACCTAGTGCAG	13200 fluorescence intensity (a.u.)
TCATCAATCATCCGTGGCACCAGAACACCAAGATTGCGTCCGGAGTCACCTAGTGCAG	23300 fluorescence intensity (a.u.)
CTACGTTTAATATTTATAATTAGTGTTCAAACATTCGATACGGAGTCACCTAGTGCAG	3340 fluorescence intensity (a.u.)
TTCAGAATTATATTTCTAATCAGCATGGCCAGTGGCGAATCGGAGTCACCTAGTGCAG	5900 fluorescence intensity (a.u.)
TCGGTAACCATATTTTGATTGGTTTGACAGGGTTCCATTACGGAGTCACCTAGTGCAG	21400 fluorescence intensity (a.u.)
TGGACCATGTGATTGTCAATGACAATGACCCATCATTGATCGGAGTCACCTAGTGCAG	14400 fluorescence intensity (a.u.)
TTAAATGGAGGAGCCAATCTATCTGGCCTTTTCTCTCCTCCGGAGTCACCTAGTGCAG	6950 fluorescence intensity (a.u.)
TCAAAATTAGTCCAACAATTGAGGTTAACATTCTATCTCACGGAGTCACCTAGTGCAG	6500 fluorescence intensity (a.u.)
CAAATTTATTGAGCTCAATTAATCCGTCATTAGCAAATGTCGGAGTCACCTAGTGCAG	16800 fluorescence intensity (a.u.)

Sequence	binding signal
CGATGATTCTTCAATTAATTACACAGCTCTAGTGTGTAAACGGAGTCACCTAGTGCAG	42100 fluorescence intensity (a.u.)
TTTGTTGCTTTACTTGGGAGATTGATCGCTAAACGAGTCACGGAGTCACCTAGTGCAG	3150 fluorescence intensity (a.u.)
AAGCATGATTAGCATATAACTAATCGAGTATTTGTTATTACGGAGTCACCTAGTGCAG	21400 fluorescence intensity (a.u.)
CGCTTATAAATTAATCCCGGGCATGTACACGCGAGAACGGCGGAGTCACCTAGTGCAG	5780 fluorescence intensity (a.u.)
AATTTTCTTATGATTAGCATTTCTATTGCTATTAGATGATCGGAGTCACCTAGTGCAG	8930 fluorescence intensity (a.u.)
ATAGATTAATGGGCATTAATAGTGAAAGTTTGAATTATGACGGAGTCACCTAGTGCAG	16900 fluorescence intensity (a.u.)
TCAGATTAGTTGACTAGCAAGCTACTCCTAGTACAGGTTACGGAGTCACCTAGTGCAG	6290 fluorescence intensity (a.u.)
AATTAATCAACTAGTATTATAAAGTTTGAAAAGGTTGGTTCGGAGTCACCTAGTGCAG	3510 fluorescence intensity (a.u.)
CATTAATCACCCTTCATCATTAATTAATTTTCCTCGACAACGGAGTCACCTAGTGCAG	18300 fluorescence intensity (a.u.)
TAGTAATTAGCCTAGTAACCCGTCATGATTAAGCCAGATTCGGAGTCACCTAGTGCAG	17600 fluorescence intensity (a.u.)
GGTAGCACTCAATTAAAATAATCCCTTGAGAGCATGCAATCGGAGTCACCTAGTGCAG	3250 fluorescence intensity (a.u.)
TAAATTTAATGAAGCTAATTTAGTGTTGTAGATGTTGCTACGGAGTCACCTAGTGCAG	23300 fluorescence intensity (a.u.)
TCTGCAATTTAACACTGACTGACGTGTACCCAGCGAGTAGCGGAGTCACCTAGTGCAG	11700 fluorescence intensity (a.u.)
TTTAGAGCACCAATCATAACCCATAAATCCGTGGGCTACTCGGAGTCACCTAGTGCAG	11700 fluorescence intensity (a.u.)
ATGGATTAATTAGGCTCAAAAGATTCATTTCGCAATTCTTCGGAGTCACCTAGTGCAG	20000 fluorescence intensity (a.u.)
GTGAATTGACCGTACATGATATTACCACTTTACCAGGCGTCGGAGTCACCTAGTGCAG	10500 fluorescence intensity (a.u.)
GTATGACAGGTTGGACCATATATTAATAGTGTAGTATATACGGAGTCACCTAGTGCAG	6520 fluorescence intensity (a.u.)
TCTCTGATTGCCACTATGCTTCTCATTGCTTCTCTAAAGACGGAGTCACCTAGTGCAG	36000 fluorescence intensity (a.u.)
TTTGTTAATTATACTAGTTTAGTAGTATCATTACCACGCTCGGAGTCACCTAGTGCAG	8660 fluorescence intensity (a.u.)
CTTTGACTAAATCAAAACGTCTTATAACCTGAAACGAAGGCGGAGTCACCTAGTGCAG	12400 fluorescence intensity (a.u.)
CAAAATTTGCTAAATTAAACCACACATATGATTTTATATGCGGAGTCACCTAGTGCAG	20500 fluorescence intensity (a.u.)
TCCTGATAACATGTCCTAATCAAGTTTTGTGAAAGCTCAGCGGAGTCACCTAGTGCAG	11400 fluorescence intensity (a.u.)
GTTAATTAGATGGGCTTATCCTACACCAAAATTAGCAGCGCGGAGTCACCTAGTGCAG	42400 fluorescence intensity (a.u.)
TTACAAATTTAAAGTTGAAAATTCATCGATAAGTACCAGCCGGAGTCACCTAGTGCAG	4120 fluorescence intensity (a.u.)
TTTCCATCATTGATCAAGGCATAAATCAATGGCTCATATTCGGAGTCACCTAGTGCAG	10400 fluorescence intensity (a.u.)
CAGTATATATAATTAATTAATTAATCAAATTAACACAAGCCGGAGTCACCTAGTGCAG	31500 fluorescence intensity (a.u.)
GTACAGTGTACTTGATTGAGTTGACAGTCATACTCTACTACGGAGTCACCTAGTGCAG	18500 fluorescence intensity (a.u.)
